Test results: paper PMC6919601, “Identification of Plasmodium dipeptidyl aminopeptidase allosteric inhibitors by high throughput screening” (PLoS ONE, 2019)
In all, about 110,000 compounds went through this assay and about 230 (0.21%) showed an effect of 50% or more. The list shows a part of the results.

target: DPAP1 (Plasmodium falciparum, UniProt Q8IIJ9); experiment: primary screen, percent inhibition; read by cleavage of a fluorogenic dipeptide substrate; higher = more effect of the substance; set-up: species or system P. falciparum D10 trophozoite lysates; single well
Sequence (Q8IIJ9 whole entry, looked up): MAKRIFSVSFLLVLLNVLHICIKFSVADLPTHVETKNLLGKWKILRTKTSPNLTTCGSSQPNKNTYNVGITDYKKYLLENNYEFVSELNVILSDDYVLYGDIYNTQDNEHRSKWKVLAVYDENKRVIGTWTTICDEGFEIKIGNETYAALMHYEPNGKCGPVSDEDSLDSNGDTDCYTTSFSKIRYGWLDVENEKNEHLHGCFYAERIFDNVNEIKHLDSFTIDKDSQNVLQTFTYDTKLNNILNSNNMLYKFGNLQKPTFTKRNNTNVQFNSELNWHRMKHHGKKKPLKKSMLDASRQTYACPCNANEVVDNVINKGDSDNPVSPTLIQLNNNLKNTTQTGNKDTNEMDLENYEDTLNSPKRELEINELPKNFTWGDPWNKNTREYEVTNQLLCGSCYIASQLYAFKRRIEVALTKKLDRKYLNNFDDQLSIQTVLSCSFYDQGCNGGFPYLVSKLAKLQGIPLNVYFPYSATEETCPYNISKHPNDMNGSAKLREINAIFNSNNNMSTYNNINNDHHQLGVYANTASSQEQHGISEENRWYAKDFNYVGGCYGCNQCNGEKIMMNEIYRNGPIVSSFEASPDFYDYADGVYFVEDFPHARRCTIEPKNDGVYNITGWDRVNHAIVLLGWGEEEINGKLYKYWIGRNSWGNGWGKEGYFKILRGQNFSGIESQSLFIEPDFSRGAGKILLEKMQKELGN
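Also: 30 min substrate incubation versus DMSO and 10 µM JCP410 controls.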

| SMILES | % Inhibition @ 10 uM |
| --- | --- |
| CC1CCN(Cc2nnc(-c3ccccc3)o2)CC1 | -2.99% |
| Cc1ccc2oc(=O)c3cc(C(=O)N(Cc4ccco4)CC4CCCO4)sc3c2c1 (centres unmarked) | 3.88% |
| Cc1cc(N2C(=O)C(O)=C(C(=O)c3cccs3)C2c2ccc(Br)cc2)no1 (centres unmarked) | 5.37% |
| COc1ccc(CN2CCN(Cc3ccccc3)CC2)cc1OC | 1.38% |
| CCCCCCSC1=C(C#N)C(c2ccc(O)cc2)CC(=O)N1 (centres unmarked) | -1.08% |
| O=C(Nc1cccnc1)C1CCN(c2ncnc3c2nc2n3CCCCC2)CC1 | 0.483% |
| CN1CCN(C(=O)c2nc(SCc3ccc(F)cc3)ncc2Cl)CC1 | 0.758% |
| Nc1c(C(=O)Nc2ccccc2)sc2nc(-c3ccc(F)cc3)cc(-c3ccccc3)c12 | 7.55% |
| O=C(NCCc1c[nH]c2ccccc12)c1ccco1 | 4.93% |
| CC(C(=O)N1CCC2(CC1)OCCO2)n1sc2ccccc2c1=O (centres unmarked) | -10% |
| CCCN1CCN(C(=O)c2sc3ncn(CC(=O)N4CCCCC4C)c(=O)c3c2C)CC1 (centres unmarked) | -3.93% |
| O=C(CSc1nc2c(c(=O)n1Cc1ccccc1)SCC2)N1CCC(Cc2ccccc2)CC1 | -1.68% |
| CC(C)(CO)C(O)C(=O)NC1CCCCC1 (centres unmarked) | 0.962% |
| O=C(NCc1ccco1)c1ccc(COc2cc(Cl)ccc2Cl)o1 | -1.33% |
| c1nnc2c3c4c(sc3n3cnnc3n12)CCCCC4 | -1.6% |
| Cc1cc(N2CCC(C)CC2)n2nc(C)c(-c3ccc(Cl)cc3)c2n1 | -1.75% |
| O=C1c2ccccc2C(=O)C1c1ccc(C2C(=O)c3ccccc3C2=O)cc1 | 5.28% |
| CCN(CC)S(=O)(=O)c1ccc(/N=C/c2c(C)nn(-c3ccc(F)cc3)c2O)cc1 | 0.851% |
| O=C(NCc1cccc(F)c1)c1c(O)nc2c(c1O)CCCC2 | 4.35% |
| COC(=O)c1coc(C(=O)[C@H](CCc2ccccc2)NC(=O)CCC2CCCCC2)n1 | 7.14% |
| O=C(Nc1cnn(Cc2ccccc2)c1)C1CCCC1 | -1.78% |
| CC(SC12CC3CC(CC(C3)C1)C2)C(=O)O (centres unmarked) | -0.415% |
| Cc1ccc(S(=O)(=O)N(CC(=O)Nc2ccc3c(c2)OCO3)c2ccccc2C)cc1 | -2.83% |
| O=C(Nc1ccccc1C(=O)O)c1cccc(S(=O)(=O)Nc2ccccc2)c1 | 4.8% |
| c1ccc(-c2cc(NCC3CC3)n3cnnc3n2)cc1 | -4.39% |
| CCCN1C(=S)NC2c3ccccc3OC1(C)C2C (centres unmarked) | -8.16% |

| SMILES | % Inhibition @ 10 uM |
| --- | --- |
| O=C1NN(c2ccc(Cl)c(Cl)c2)C(=O)/C1=C/c1ccc(Br)cc1 | -1.5% |
| CCOc1ccc(C2Oc3ccccc3C3CC(c4ccccc4O)=NN32)cc1 (centres unmarked) | 1.55% |
| CC[C@H](NC(=O)[C@H](CC1CCCCC1)/N=C/NS(=O)(=O)c1ccccc1)C(=O)c1nc2ccccc2o1 | -8.36% |
| Cc1cccc(CN2CCC(CNC(=O)c3cc(S(=O)(=O)N4CCCC4)cn3C)CC2)c1 | -3.42% |
| COc1ccc2nc(N(CCN(C)C)C(=O)COc3ccccc3)sc2c1 | -5.3% |
| Cc1[nH]c2ccccc2c1C(=O)/C=C/c1cccc2ccccc12 | 2.6% |
| c1ccc2c(c1)c(NCc1ccncc1)nn1nnnc21 | 0.451% |
| O=C1S/C(=C/c2cccc(O)c2)C(=O)N1Cc1ccccc1F | -1.22% |
| Cc1ccccc1-n1nc2c(c1NC(=O)/C=C\c1ccccc1)CS(=O)(=O)C2 | 3.8% |
| COc1cc2c(C)nc3c(c(C)nn3Cc3ccccc3)c2cc1OC | -0.254% |
| COc1ccc(OC)c(C2C(=O)N(C3CCC(C)CC3)CC(=O)N2CCc2ccccc2)c1 (centres unmarked) | 4.36% |
| Cc1oc(-c2cccs2)nc1CS(=O)CC(=O)NCCc1ccc(Cl)cc1 (centres unmarked) | -1.89% |
| Cn1ncc2c(N3CCC(O)CC3)ncnc21 | 5.23% |
| COc1ccc(C2C=C(c3ccc(C)cc3)Nc3ncnn32)c(OC)c1OC (centres unmarked) | 3.32% |
| CN(C)CCN(C(=O)C1CCCCC1)c1nc2ccc(F)cc2s1 | -5.59% |
| O=C(Nc1cccc(O)c1)c1ccc(-c2ccccc2)cc1 | 2.5% |
| Cc1ccc(-c2c(N3CCN(c4ccccn4)CC3)c(=O)c2=O)cc1 | 0.0281% |
| O=C(c1ccccc1)c1ccc2nc(NCc3ccncc3)c3nncn3c2c1 | 5.84% |
| COc1ccc(CCNC(=O)CCc2ccccc2)cc1OC | -4.16% |
| Cc1csc2nc(CNC(=O)c3ccco3)cn12 | 0.953% |
| O=C(NCCc1ccsc1)c1cc2ccccn2n1 | -1.7% |
| COc1ccc(C)cc1NC(=O)CC(O)(C(F)(F)F)C(F)(F)F | 0.907% |
| CCc1ccc(OCC(=O)N(Cc2nc(-c3ccccc3)no2)C(C)C)cc1 | 0.809% |
| CC(=O)Nc1ccccc1SCC(=O)Nc1sc2c(c1C#N)CCCC2 | 2.38% |
| C=CCCC(C)(O)C(C=C)S(=O)(=O)c1ccc(C)cc1 (centres unmarked) | -4.06% |
| O=C(CN1C(=O)S/C(=C\c2ccc(-c3ccc(F)cc3)o2)C1=O)N1CCCC1 | -1.43% |

| SMILES | % Inhibition @ 10 uM |
| --- | --- |
| Cc1ccc(Cn2c(=O)c3c(ncn3Cc3ccccc3)n(C)c2=O)cc1 | -1.6% |
| Cc1ccc(NC2CC(=O)N(c3ccc(F)cc3)C2=O)cc1 (centres unmarked) | -17.7% |
| COc1ccc(C2c3sc(O)nc3SC3C4CCC(C4)C23)cc1 (centres unmarked) | 13.2% |
| Cc1ccccc1OCc1nc(C#N)c(NCCN(C)C)o1 | 5.65% |
| CCOc1nc(NC(C)(C)CO)nc(OCC)n1 | 2.33% |
| Cc1ccnc(NC(=O)C2CCCN(S(=O)(=O)c3ccc4nc(O)ccc4c3)C2)c1 (centres unmarked) | 0.568% |
| CC(=O)N(CN1C(=O)C2C3C=CC(C3)C2C1=O)c1ccc(C)cc1 (centres unmarked) | 4.99% |
| O=C(O)c1ccccc1C(=O)Nc1ccc2ncccc2c1 | 1.66% |
| CCOC(=O)N1CCC(NC(=O)C(CC)n2c3ccccc3c3cnnc(O)c32)CC1 (centres unmarked) | -0.281% |
| O=C(NC1CC1)c1nc(-c2ccc(-n3cccc3)cc2)no1 | -0.0678% |
| CCN(CC)CCN(C)C1CCN(Cc2ccccc2)CC1 | 1.57% |
| CC1CN(C(=O)c2cc(Cl)ccc2Cl)CC(C)O1 (centres unmarked) | -1.6% |
| CCN1CCN(S(=O)(=O)c2c[nH]c(C(=O)OC)c2)CC1 | 0.0525% |
| Cc1ccccc1Cn1c(CN2CCC(Cc3ccccc3)CC2)nc2c1c(=O)n(C)c(=O)n2C | -2.29% |
| CCOCCCNC(=O)c1ccc2c(c1)ncn2-c1ccc(CC)cc1 | -0.256% |
| COC(=O)C1=C(N)Oc2cc(C)nc(O)c2C1c1ccccc1 (centres unmarked) | -1.11% |
| CC1(C)CC(=O)C2=C(C1)OC(N)=C(C#N)C2c1cccc2ccccc12 (centres unmarked) | -0.268% |
| C/C=C(\C)CN(CC)CCN(CC)CC | -0.603% |
| COc1ccc(CCNC(=O)Cn2c3ccccc3c3cnnc(O)c32)cc1OC | -3.79% |
| Cn1c(C(=O)N2CCCC(C(=O)NCCc3c[nH]c4ccccc34)C2)cc2sccc21 (centres unmarked) | -7.33% |
| O=C(NC1CCCC1)c1cnn(-c2ccccc2)c1C1CCNCC1 | -5.24% |
| COc1ccccc1/C=C(\C#N)c1nc(O)c2ccccc2n1 | -1.1% |
| O=C(NC(c1ccccc1)c1c(O)ccc2ccccc12)c1ccc(Cl)cc1Cl (centres unmarked) | -5.28% |
| O=C(Nc1cccc(Cl)c1)OC1CC2C=CC1C2 (centres unmarked) | 1.15% |
| CCCC1(CCC)C(=O)N=C(Nc2ccccc2)NC1=O | 19.8% |
| CC(C)n1ncc2c(O)nc(Cc3ccccc3)nc21 | 5.61% |

| SMILES | % Inhibition @ 10 uM |
| --- | --- |
| CCOc1ccccc1/C=C1\N=C(c2ccccc2F)OC1=O | -3.71% |
| CCOc1cccc2sc(NC(=O)c3ccc(C(C)(C)C)cc3)nc12 | 2.79% |
| COc1ccc(CCNC(=O)C2CCCCC2)cc1OC | 3.53% |
| CCCCOc1cccc(NC(=O)c2ccccc2OC)c1 | -0.771% |
| CSC1=NSC2=NC(=O)/C(=C\c3cccnc3)C(=N)N12 | 2.59% |
| CN1C(=O)NC(=O)/C(=C/c2ccc(C(=O)O)cc2)C1=O | -6.04% |
| COc1ccc(C(=O)Nc2ccc(C#N)cc2)cc1Br | -5.3% |
| O=C1OC(c2ccc(Cl)cc2Cl)=N/C1=C\c1ccc2c(c1)OCO2 | -2.6% |
| Cc1cc(C)c2c(n1)SCC(=O)N2CC(=O)NCCN1CCOCC1 | -0.637% |
| COc1cc(NC(=O)NC2(C(F)(F)F)Oc3ccc(Cl)cc3O2)ncn1 (centres unmarked) | 1.62% |
| COc1ccc(S(=O)(=O)Nc2cc(Cl)ccc2Cl)cc1 | -1.62% |
| CCOC(=O)c1sc(N2C(=O)c3oc4ccccc4c(=O)c3C2c2cccs2)nc1C (centres unmarked) | 11% |
| O=C(O)/C(=C\c1ccc2c(c1)OCO2)NC(=O)c1ccc(Br)o1 | -2.87% |
| CCN1CCN(C(=O)C2c3ccccc3C(=O)N3CCc4cc(OC)c(OC)cc4C23)CC1 (centres unmarked) | 7.35% |
| CCC1(CC)Cc2ccccc2C2=C(C(=O)N3CCCCCC3)C(=O)C(=O)N21 | -3.34% |
| Clc1ccc(CCNc2nc3ccc(Cl)cc3n3cnnc23)cc1 | 2.42% |
| Cc1ccc(C)c(S(=O)(=O)NCc2ccc(C(=O)N3CC(C)CC(C)C3)cc2)c1 (centres unmarked) | 3.49% |
| Cc1ccc2[nH]c(NCc3ccccc3)nc2c1 | -1.11% |
| CC(C)c1ccc(/C=C/C(=O)Nc2ccc(S(N)(=O)=O)cc2)cc1 | -0.969% |
| CN(Cc1ccccc1)C(=O)c1ccc(Br)o1 | -2.03% |
| COc1ccc(N2CCN(Cc3ccc(C(F)(F)F)cc3)CC2)cc1 | -2.03% |
| CC(C)C[C@H](NC(=O)OCc1ccccc1)C(=O)N[C@H]1CCN(C#N)C1 | 9% |
| CC(C)Sc1nc(N)c2c3c(sc2n1)COC(C)(C)C3 | 6.56% |
